Test results published in PubChem BioAssay AID485364 (National Center for Advancing Translational Sciences (NCATS), 2010).
The whole screen tested about 360,000 compounds, of which about 11,000 (3.1%) were called active. This list was built around the results that the source calls inconclusive (neither active nor inactive); the mix of calls is not that of the screen. The call rests on the fitted dose curve; in most records, active means well fitted inhibition curve with a large enough effect; inconclusive means small, poorly fitted or top-dose-only effect; inactive means no such curve, though single readings can be large or run the other way. No potency is given beside an inconclusive call; the fits are too rough.
Further: nearly all actives have a fitted effect of over 60% in size.
On the % scale 0 is the no-effect control and ±100 the full control effect; potency means the concentration at half of the fitted maximal effect; tags describe the fitted curve by direction and shape.

Each compound was assayed against Schistosoma mansoni thioredoxin glutathione reductase (TGR) (UniProt Q962Y6) (assay: qHTS Assay for the Inhibitors of Schistosoma Mansoni Peroxiredoxins). Details: purified TGR, DTNB reduction, TNB absorbance 405 nm; activity change, negative = inhibition: at 114 µM (top of the series).
How it was run: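 Kinetic colorimetric format: TGR-catalysed, NADPH-driven DTNB reduction monitored via TNB absorbance. Enzyme dispensed at 20 nM; compound exposure 15 min at room temperature before reaction start.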
`COCCCNC(=O)c1ccc(C2SCC(=O)N2Cc2ccco2)cc1` (stereo not drawn) was tested, and the Potency was inconclusive [inhibitor, partial curve].
With `CN(c1ncc(C(F)(F)F)cc1Cl)n1cc(C(N)=O)c2ccccc2c1=O` the Potency was inconclusive [inhibitor, partial curve].
For `COc1ccccc1Nc1cc(N2CCOCC2)c2nonc2c1[N+](=O)[O-]`, the Potency was inconclusive [inhibitor, partial curve].
For `OC(CNCCc1c[nH]c2ccccc12)C(F)(F)F` (stereo not drawn), the Potency was inconclusive [inhibitor, partial curve].
With `Cc1ccc(C(C)(O)CS(=O)(=O)Cc2ccccc2)cc1` (stereo not drawn) the Potency was inconclusive [inhibitor, partial curve].
`O=C(Nc1ccccc1)N1CCCc2ccccc21` was tested, and the “activity change, negative = inhibition” value was inactive: -4.53%.
`CN1C(=O)/C(=C/c2ccco2)SC1=Nc1cccc(C(=O)O)c1` was tested, and the Potency was active: 14.1 µM.
For `CSc1cccc(NC(=O)CSc2ccccc2)c1`, the Potency was inconclusive [inhibitor, partial curve].
`Cc1cccc(NC(=O)c2nc(S(=O)(=O)Cc3ccccc3)ncc2Cl)c1` was tested, and the Potency was inconclusive [inhibitor, full curve, poor fit].
With `CCC(C)c1ccccc1NC(=S)Nc1cccnc1` (stereo not drawn) the Potency was inconclusive [inhibitor, partial curve].
In the case of `Cc1ccc(S(=O)(=O)c2nc(-c3ccc(F)cc3)oc2N2CCOCC2)cc1`, the Potency is reported as inconclusive [inhibitor, partial curve].
With `COc1ccccc1-n1ccnc1SCC(=O)NCc1ccco1` the Potency was inconclusive [inhibitor, partial curve].
With `COc1ccc(OCc2cc(C(=O)N3CCCC(CO)C3)no2)c2ccccc12` (stereo not drawn) the Potency was inconclusive [inhibitor, partial curve].
In the case of `CC1(C)CN=c2s/c(=C\c3ccc(Cl)cc3)c(=O)n2C1`, the “activity change, negative = inhibition” value is reported as inactive: 22.5%.
`O=C(COC(=O)c1cc([N+](=O)[O-])ccc1Cl)NCCc1ccccc1` was tested, and the Potency was inconclusive [inhibitor, partial curve].
With `O=C(CNS(=O)(=O)c1ccccc1)OCC(=O)c1c[nH]c2ccccc12` the “activity change, negative = inhibition” value was inactive: -0.895%.
In the case of `Cc1nnc(N2CCCC(C(=O)NCCc3ccccc3)C2)c2nn(-c3ccccc3)c(C)c12` (stereo not drawn), the “activity change, negative = inhibition” value is reported as inactive: 5.32%.
In the case of `O=C(O)c1ccc(NC(=S)NC(=O)c2cccnc2)cc1`, the Potency is reported as active: 35.5 µM.
`O=C(NC(=S)Nc1cccc(-c2ccc(CO)o2)c1)c1cccs1` was tested, and the Potency was active: 20 µM.
For `O=[N+]([O-])c1ccc(/C=N/NC(=S)Nc2ccccc2F)o1`, the Potency was inconclusive [inhibitor, partial curve].
With `COc1ccccc1N1CCN(C(=O)CSc2nc(-c3ccco3)cc(C(F)(F)F)n2)CC1` the Potency was active: 35.5 µM.
For `CC(C)(C)n1cnc2cc(NCc3ccc(Br)cc3)ccc21`, the “activity change, negative = inhibition” value was inactive: -8.79%.
`Cn1c2c(c(=O)n(C)c1=O)C(c1ccccc1Cl)C(C#N)=C(N)O2` (stereo not drawn) was tested, and the Potency was inconclusive [inhibitor, full curve].
`CSCC[C@@H](C(=O)NCCCCCCCCCCC(=O)N1CCNCC1)n1cc(CCO)nn1` was tested, and the Potency was inconclusive [inhibitor, partial curve].
With `Oc1ccc(-c2nc(-c3ccc(O)c(O)c3)cs2)cc1` the Potency was inconclusive [inhibitor, partial curve].
`O=C1N(C2CCCC2)C[C@@H]2C[C@@H](c3cccn3-c3nccs3)N3CCC[C@@]123` was tested, and the Potency was inconclusive [inhibitor, partial curve].
In the case of `Cc1ccccc1-c1nnc2s/c(=C\c3ccc(N(C)C)cc3)c(=O)n12`, the Potency is reported as inconclusive [inhibitor, single point].
In the case of `COc1ccccc1-c1n[nH]c(=S)n1Cc1ccco1`, the Potency is reported as active: 39.8 µM.
For `Nc1ccc(-c2c3ccc(=O)cc-3oc3cc(O)ccc23)cc1C(=O)O`, the Potency was inconclusive [inhibitor, full curve, poor fit].
`Cc1cc(C(=O)N2CCCC(N3CCN(c4cccc(C(F)(F)F)c4)CC3)C2)no1` (stereo not drawn) was tested, and the “activity change, negative = inhibition” value was inactive: -3.84%.
`Cc1ccc(S(=O)(=O)N2CCOCC2)cc1C(=O)OCC(=O)NC1CC1` was tested, and the “activity change, negative = inhibition” value was inactive: -11.7%.
`CS(=O)(=O)N1CCc2cc(NC(=O)c3ccc(Cl)cc3Cl)ccc21` was tested, and the “activity change, negative = inhibition” value was inactive: 1.11%.
In the case of `Cc1oc2c(c1C(=O)c1ccccc1)C(=O)C(=O)c1ccccc1-2`, the Potency is reported as inconclusive [inhibitor, full curve].
In the case of `COc1cc(OC)cc(-c2c(-c3cccs3)c3cc(-c4cnc(OC)nc4)ccc3n2C)c1`, the “activity change, negative = inhibition” value is reported as inactive: -5.03%.
In the case of `C/C(=N\NC(=O)c1cc(O)ccc1O)c1cccc(NC(=O)c2cccc(Cl)c2)c1`, the Potency is reported as active: 63.1 µM.
With `CC1SC(=S)N(c2ccc(N(C)C)cc2)C1=O` (stereo not drawn) the “activity change, negative = inhibition” value was inactive: -22.7%.
With `COc1ccc(-n2nc3c(c2NC(=O)CCl)CSC3)cc1` the Potency was active: 8.91 µM.
With `CC(C)c1ccc(/C=N/NC(=O)CC(=O)NC2CCCCC2)cc1` the “activity change, negative = inhibition” value was inactive: 37.8%.
`COc1cccc(-n2cc(C(=O)NC(C)C)c3ccccc3c2=O)c1` was tested, and the “activity change, negative = inhibition” value was inactive: 0.646%.
With `COc1cc(/C=C2/SC(=S)N(Cc3ccccc3)C2=O)cc(Cl)c1O` the Potency was inconclusive [inhibitor, full curve].
With `Cc1ccc(C(C)C)c(OCC(=O)NN=C(CCl)CCl)c1` the Potency was inconclusive [inhibitor, full curve, poor fit].
With `O=C(NCc1ccc(F)cc1)c1ccc(CS(=O)Cc2ccccc2Cl)o1` (stereo not drawn) the Potency was inconclusive [inhibitor, partial curve].
With `O=C(CSc1oc(-c2ccco2)nc1S(=O)(=O)c1ccc(Cl)cc1)Nc1ccc(F)cc1` the Potency was inconclusive [inhibitor, partial curve].
With `COc1ccc(C(=O)COC(=O)/C=C/c2ccco2)cc1F` the Potency was active: 22.4 µM.
For `O=C(c1cc2cc([N+](=O)[O-])ccc2oc1=O)N1CCOCC1`, the Potency was inconclusive [inhibitor, partial curve].
In the case of `c1ccc2c(c1)CCN(c1ncnc3c1[nH]c1ccccc13)C2`, the “activity change, negative = inhibition” value is reported as inactive: 0.367%.
In the case of `O=C(CC(Sc1ccc(Br)cc1)C(=O)O)c1ccc(F)cc1` (stereo not drawn), the Potency is reported as active: 0.631 µM.
With `COc1ccccc1CNC(=O)CCC1N=C2c3ccccc3N=C(SCC(=O)NCC3CCCO3)N2C1=O` (stereo not drawn) the “activity change, negative = inhibition” value was inactive: -1.76%.
